Four molecules from article PMC9110389 can be followed below.

Chains of the proteins cited; added tags and fusions are not shown. Residues count along the entry.
UniProt O04153, residues 29-424: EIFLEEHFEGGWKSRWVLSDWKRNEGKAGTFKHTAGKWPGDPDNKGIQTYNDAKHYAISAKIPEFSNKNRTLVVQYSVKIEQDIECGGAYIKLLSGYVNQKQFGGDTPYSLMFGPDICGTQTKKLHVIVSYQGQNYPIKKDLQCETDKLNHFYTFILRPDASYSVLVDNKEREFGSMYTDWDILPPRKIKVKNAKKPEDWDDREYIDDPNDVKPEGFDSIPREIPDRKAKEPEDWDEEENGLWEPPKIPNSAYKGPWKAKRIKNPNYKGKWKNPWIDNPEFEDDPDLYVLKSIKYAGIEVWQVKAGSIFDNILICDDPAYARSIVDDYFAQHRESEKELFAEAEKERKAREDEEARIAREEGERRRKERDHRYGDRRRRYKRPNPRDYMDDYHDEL
UniProt Q38858, residues 23-424: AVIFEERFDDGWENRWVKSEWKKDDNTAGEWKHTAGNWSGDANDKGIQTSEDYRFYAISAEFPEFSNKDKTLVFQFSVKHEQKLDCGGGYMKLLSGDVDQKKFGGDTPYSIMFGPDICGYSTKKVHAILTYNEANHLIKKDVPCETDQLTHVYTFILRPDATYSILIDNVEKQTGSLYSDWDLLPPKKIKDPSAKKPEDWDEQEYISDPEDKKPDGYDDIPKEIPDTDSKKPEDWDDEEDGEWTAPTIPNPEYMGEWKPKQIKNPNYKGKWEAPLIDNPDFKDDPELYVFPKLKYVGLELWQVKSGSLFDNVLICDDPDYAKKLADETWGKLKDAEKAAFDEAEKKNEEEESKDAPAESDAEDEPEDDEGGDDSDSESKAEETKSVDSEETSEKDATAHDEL

Common to all, as to test: co-IP; Arabidopsis (leaf) protoplasts transformed with the indicated plasmids, cultured 16 h, lysed in extracting buffer (40 mM PIPES pH 7.4, 8 mM EGTA, 1 mM MgCl2, 0.33 M sucrose, 1 mM DTT, 1% Triton X-100); supernatant incubated with anti-Myc or anti-GFP agarose 4 h at 4 °C; blots with anti-GFP and anti-Myc; for SUN4 with CRT3 also after tunicamycin treatment of the protoplasts

Experiment [1] addresses CRT3 (Arabidopsis thaliana) (UniProt O04153).
Experiment [2] has as its target T1, CNX1 (Arabidopsis thaliana) (UniProt P29402).
T1 sequence: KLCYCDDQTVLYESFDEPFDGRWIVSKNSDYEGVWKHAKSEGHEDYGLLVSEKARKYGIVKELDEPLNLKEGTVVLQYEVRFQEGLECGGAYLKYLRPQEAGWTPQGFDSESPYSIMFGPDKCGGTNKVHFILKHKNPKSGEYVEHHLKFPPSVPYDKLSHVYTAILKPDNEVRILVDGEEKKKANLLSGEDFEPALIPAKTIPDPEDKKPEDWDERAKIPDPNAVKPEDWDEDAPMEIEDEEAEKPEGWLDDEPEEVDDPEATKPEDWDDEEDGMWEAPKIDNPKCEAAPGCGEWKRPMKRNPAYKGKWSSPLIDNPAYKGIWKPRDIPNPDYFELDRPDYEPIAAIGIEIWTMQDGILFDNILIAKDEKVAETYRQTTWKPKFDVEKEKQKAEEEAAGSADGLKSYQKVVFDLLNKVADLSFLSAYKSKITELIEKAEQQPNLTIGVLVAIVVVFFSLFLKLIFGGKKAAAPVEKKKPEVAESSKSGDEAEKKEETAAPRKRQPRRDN

The target in experiment [3] is CRT2 (Arabidopsis thaliana) (UniProt Q38858).
Experiment [4] deals with T2, POLLEN … IN GUIDANCE1 (POD1) (Arabidopsis thaliana) (UniProt F4HVJ3).
T2 sequence: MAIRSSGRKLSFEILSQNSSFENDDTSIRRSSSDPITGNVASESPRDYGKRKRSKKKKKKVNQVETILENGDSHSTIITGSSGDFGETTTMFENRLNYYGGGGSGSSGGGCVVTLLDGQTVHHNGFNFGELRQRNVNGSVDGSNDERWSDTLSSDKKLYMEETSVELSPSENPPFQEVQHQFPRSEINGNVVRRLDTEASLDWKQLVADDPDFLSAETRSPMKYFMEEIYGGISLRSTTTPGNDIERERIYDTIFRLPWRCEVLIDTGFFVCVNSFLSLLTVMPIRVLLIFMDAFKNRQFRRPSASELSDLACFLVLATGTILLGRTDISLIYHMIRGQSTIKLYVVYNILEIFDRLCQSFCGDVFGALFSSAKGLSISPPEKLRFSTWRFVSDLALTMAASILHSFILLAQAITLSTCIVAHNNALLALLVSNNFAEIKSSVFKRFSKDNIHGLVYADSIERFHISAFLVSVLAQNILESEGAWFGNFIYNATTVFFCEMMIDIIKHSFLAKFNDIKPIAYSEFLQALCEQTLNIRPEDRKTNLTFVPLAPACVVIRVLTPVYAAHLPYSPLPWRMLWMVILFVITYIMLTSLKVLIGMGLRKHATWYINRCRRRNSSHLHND

Results are given in words; binding and its absence hold for the method and conditions named. Binding seen in cells or lysates may run through a third protein. Some entries that bind do so weakly or less than the wild type.

B1: POLLEN … IN GUIDANCE1 (POD1) (protein, UniProt F4HVJ3 1-624)
chain: MAIRSSGRKLSFEILSQNSSFENDDTSIRRSSSDPITGNVASESPRDYGKRKRSKKKKKKVNQVETILENGDSHSTIITGSSGDFGETTTMFENRLNYYGGGGSGSSGGGCVVTLLDGQTVHHNGFNFGELRQRNVNGSVDGSNDERWSDTLSSDKKLYMEETSVELSPSENPPFQEVQHQFPRSEINGNVVRRLDTEASLDWKQLVADDPDFLSAETRSPMKYFMEEIYGGISLRSTTTPGNDIERERIYDTIFRLPWRCEVLIDTGFFVCVNSFLSLLTVMPIRVLLIFMDAFKNRQFRRPSASELSDLACFLVLATGTILLGRTDISLIYHMIRGQSTIKLYVVYNILEIFDRLCQSFCGDVFGALFSSAKGLSISPPEKLRFSTWRFVSDLALTMAASILHSFILLAQAITLSTCIVAHNNALLALLVSNNFAEIKSSVFKRFSKDNIHGLVYADSIERFHISAFLVSVLAQNILESEGAWFGNFIYNATTVFFCEMMIDIIKHSFLAKFNDIKPIAYSEFLQALCEQTLNIRPEDRKTNLTFVPLAPACVVIRVLTPVYAAHLPYSPLPWRMLWMVILFVITYIMLTSLKVLIGMGLRKHATWYINRCRRRNSSHLHND
Turning to B1, the binding entry in experiment [1] is given as “binds”.

B2: SUN4 (protein, UniProt F4I8I0 1-596)
chain: MQRSRRALLVRRRVSETTSNGRNRFYKVSLSLVFLIWGLVFLSTLWISHVDGDKGRSLVDSVEKGEPDDERADETAESVDATSLESTSVHSNPGLSSDVDIAAAGESKGSETILKQLEVDNTIVIVGNVTESKDNVPMKQSEINNNTVPGNDTETTGSKLDQLSRAVPLGLDEFKSRASNSRDKSLSGQVTGVIHRMEPGGKEYNYAAASKGAKVLSSNKEAKGASSIICRDKDKYLRNPCSTEGKFVVIELSEETLVNTIKIANFEHYSSNLKDFEILGTLVYPTDTWVHLGNFTALNMKHEQNFTFADPKWVRYLKLNLLSHYGSEFYCTLSLLEVYGVDAVERMLEDLISIQDKNILKLQEGDTEQKEKKTMQAKESFESDEDKSKQKEKEQEASPENAVVKDEVSLEKRKLPDPVEEIKHQPGSRMPGDTVLKILMQKIRSLDVSLSVLESYLEERSLKYGMIFKEMDLEASKREKEVETMRLEVEGMKEREENTKKEAMEMRKWRMRVETELEKAENEKEKVKERLEQVLERLEWMEKKGVVVFTICVGFGTIAVVAVVFGMGIVRAEKQGGLAWLLLLISSTFVMFILSL
For the molecule B2, the binding entry was “no binding” in experiment [2], “no binding” in experiment [3], “binds” in experiment [1] and “binds” in experiment [4].

B3: SUN3 (protein, UniProt F4I316 1-660)
chain: MQRSCRTRRRVSVNKFNGRNSFYKVSLSLVFLLWVLLFFSTLLISHGDGAKDEPLNDSMGMADPDDGQSDEKVVPFDGPLSLASASVDVTSDLSRNDDVNLSEESEDKEQEAEISSTVSGNDIESKDTYLLKQSEINKKDTGIDAGSKYDDFPKKSEINNTGTWNDTEGKDDNNFLKQSQLNKTGTGNDTESSDNEFLEQNQMNKTVLGNGTEINVSKVDQPSRAVPLGLDEFKSRASNSRNKSLSDQVSGVIHRMEPGGKEYNYASASKGAKVLSSNKEAKGAASILSRDNDKYLRNPCSTEGKFVVVELSEETLVNTIKIANFEHYSSNLKEFELQGTLVYPTDTWVHMGNFTASNVKHEQNFTLLEPKWVRYLKLNFISHYGSEFYCTLSLIEVYGVDAVERMLEDLISVQDNKNAYKPREGDSEHKEKPMQQIESLEGDDGADKSTHREKEKEAPPENMLAKTEASMAKSSNKLSEPVEEMRHHQPGSRMPGDTVLKILMQKLRSLDLNLSILERYLEELNLRYGNIFKEMDREAGVREKAIVALRLDLEGMKERQEGMVSEAEEMKEWRKRVEAEMEKAEKEKENIRQSLEQVSKRLEWMEKKCLTVFTVCLGFGIIAVIAVVIGMGTGLAEKTGSGAWLLLLISSTFIMFVLSL
Regarding B3, the results for the binding result in experiment [2] and in experiment [4] were “no binding” and “binds”, respectively.

B4: SUN5 (protein, UniProt F4JPE9 1-561)
chain: MARRGSCSTICLNEKLQRFRIVRISDKADNFNSRSGSFFERSISLVLLLWCFLFLVYSKLGQSHDDYGNADRIGNYTDGSVSKTLNSTSSVFPQATEKENNFCLLRKGQLQDVYEHVLVNNALLICKVVLPERRISKKTLEARDPRYVNLEDKSLKVNGSSQLVNNGTRYRLEPDGNGYNYASAMKGAKVVDHNKEAKGASNVLGKDHDKYLRNPCSVSDKYVVIELAEETLVDTVRIANFEHYSSNPKEFSLSGSLSFPSDMWTPAGSFAAANVKQIQSFRLPEPKWLRYLKLNLVSHYGSEFYCTLSVVEVFGIDALEQMLEDLFVPSETPPSKPAMVELKTADEKQDGEIKSNRTDQIGKETEAQKKKDDVVKTINIIGDKKYEVKEKHNVLKVMMQKVKLIEMNLSLLEDSVKKMNDKQPEVSLEMKKTLVLVEKSKADIREITEWKGKMEKELRDLELWKTLVASRVESLARGNSALRLDVEKIVKEQANLESKELGVLLISLFFVVLATIRLVSTRLWAFLGMSITDKARSLWPDSGWVMILLSSSIMIFIHLLS
B4: the figures for the binding entry in experiment [2] and in experiment [4] were “no binding” and “binds”, respectively.
